This is one part of the list. Many values rest on one well or one pass, so single values are uncertain.
How the values were obtained:
Assay in all cases: cell count relative to DMSO control; melanoma cells; higher = more viable cells
Conditions in all cases: library dose: standard library concentration; 72 h; first compound 2 µM
[1] = test system: G361
[2] = test system: IPC-298
[3] = test system: IST-MEL1
[4] = test system: LB2518-MEL
[5] = test system: LOXIMVI
[6] = test system: MEL-HO
[7] = test system: MZ2-MEL
[8] = test system: MeWo
[9] = test system: RPMI7951
[10] = test system: RVH-421
[11] = test system: SkMel28
[12] = test system: SkMel2
[13] = test system: SkMel30
[14] = test system: SkMel5
[15] = test system: UACC257
[16] = test system: UACC62
[17] = test system: WM115
[18] = test system: WM1716
[19] = test system: WM1745
[20] = test system: WM3526
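Note: cells treated in 1,536-well plates, then fixed and DAPI-stained, with nuclei counted from automated high-throughput microscope images.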

Structure (SMILES) | cell count [1] [%] | cell count [2] [%] | cell count [3] [%] | cell count [4] [%] | cell count [5] [%] | cell count [6] [%] | cell count [7] [%] | cell count [8] [%] | cell count [9] [%] | cell count [10] [%] | cell count [11] [%] | cell count [12] [%] | cell count [13] [%] | cell count [14] [%] | cell count [15] [%] | cell count [16] [%] | cell count [17] [%] | cell count [18] [%] | cell count [19] [%] | cell count [20] [%]
CCCCCCCCCCCCCCCCCCOP(=O)([O-])OC1CC[N+](C)(C)CC1 [Perifosine] + Cc1ccc(NC(=O)c2cccc(N(C)C)c2)cc1NC(=O)c1ccc(O)cc1 [ZM336372] (partner dose 10 µM) | 101 | 104 | 88.3 | 97.7 | 86.9 | 88.1 | 91.8 | 82.7 | 14.3 | 80.8 | 85.6 | 99.3 | 97.7 | 89.7 | 81.3 | 70.1 | 85.7 | 98.3 | 69.3 | 82.6
C[C@@H](N)c1ccc(C(=O)Nc2ccnc3[nH]ccc23)cc1 + C[C@@H]1CCN(C(=O)CC#N)C[C@@H]1N(C)c1ncnc2[nH]ccc12 [CP690550] (partner dose 5 µM) | 88.5 | 114 | 92.2 | 132 | 93.7 | 79.1 | 73 | 76.6 | 48.5 | 44.2 | 88.7 | 107 | 104 | 78.4 | 68.4 | 106 | 91 | 63.3 | 52.4 | 97.5
C[C@@H](N)c1ccc(C(=O)Nc2ccnc3[nH]ccc23)cc1 + CS(=O)(=O)CCNCc1ccc(-c2ccc3ncnc(Nc4ccc(OCc5cccc(F)c5)c(Cl)c4)c3c2)o1 [lapatinib] (partner dose 4 µM) | 67.5 | 93.1 | 87.1 | 79.3 | 89.6 | 48.3 | 17.4 | 69.3 | 32.8 | 170 | 62.3 | 86 | 71.8 | 44.1 | 82.8 | 68.1 | 115 | 49.9 | 41.9 | 83.5
Cn1sc(=O)n(Cc2ccccc2)c1=O + C#Cc1cccc(Nc2ncnc3cc(OCCOC)c(OCCOC)cc23)c1 [erlotinib] (partner dose 4 µM) | 80.6 | 63.7 | 81.4 | 60.1 | 99.6 | 75.4 | 76.1 | 70.9 | 76.1 | 84.4 | 79.6 | 71.7 | 63.1 | 59.2 | 104 | 64.3 | 77.3 | 93.8 | 58 | 75.2
CCCCCCCCCCCCCCCCCCOP(=O)([O-])OC1CC[N+](C)(C)CC1 [Perifosine] + COc1ccc(C2=N[C@@H](c3ccc(Cl)cc3)[C@@H](c3ccc(Cl)cc3)N2C(=O)N2CCNC(=O)C2)c(OC(C)C)c1 [Nutlin-3] (partner dose 0.5 µM) | 74.8 | 98.5 | 105 | 82.8 | 59.5 | 80.6 | 73.1 | 109 | 19.3 | 59.6 | 52.2 | 102 | 86.2 | 79.3 | 96.8 | 66.3 | 89.5 | 66.5 | 81.3 | 92.6
Cn1sc(=O)n(Cc2ccccc2)c1=O + Cc1ccc(NC(=O)c2cccc(N(C)C)c2)cc1NC(=O)c1ccc(O)cc1 [ZM336372] (partner dose 10 µM) | 66.7 | 92.2 | 79.6 | 88.6 | 80.9 | 79.4 | 88.8 | 90.5 | 39.6 | 104 | 84 | 87.9 | 84.8 | 68.4 | 97.1 | 72.4 | 88 | 82.7 | 87.9 | 86.4
C[C@@H](N)c1ccc(C(=O)Nc2ccnc3[nH]ccc23)cc1 + CC(=O)c1c(C)c2cnc(Nc3ccc(N4CCNCC4)cn3)nc2n(C2CCCC2)c1=O [palbociclib] (partner dose 0.2 µM) | 53.3 | 73.9 | 73.1 | 65.9 | 78.9 | 32.4 | 45 | 44.6 | 41.5 | 80.6 | 32.1 | 70.2 | 58.6 | 40.2 | 33.2 | 48.6 | 65.6 | 30.3 | 52.2 | 49.2
CCCCCCCCCCCCCCCCCCOP(=O)([O-])OC1CC[N+](C)(C)CC1 [Perifosine] + Cc1cc(Nc2cc(N3CCN(C)CC3)nc(/C=C/c3ccccc3)n2)n[nH]1 [ENMD2076] (partner dose 0.2 µM) | 107 | 86.3 | 115 | 75.7 | 82.4 | 95.2 | 108 | 71.3 | 19.4 | 119 | 31.3 | 99.9 | 71.5 | 59.1 | 90.4 | 54 | 54.2 | 86.3 | 66.2 | 72.6
CCCCCCCCCCCCCCCCCCOP(=O)([O-])OC1CC[N+](C)(C)CC1 [Perifosine] + O=C(CCCCCCC(=O)Nc1ccccc1)NO [vorinostat] (partner dose 0.4 µM) | 75.8 | 99.4 | 79.8 | 94.7 | 53.8 | 100 | 114 | 81.1 | 32.6 | 76.8 | 35.6 | 68.6 | 82.4 | 78 | 76.5 | 66.3 | 107 | 90.2 | 87.8 | 76.2
Cn1sc(=O)n(Cc2ccccc2)c1=O + O=C(O)c1ccc2c(c1)nc(Nc1cccc(Cl)c1)c1ccncc12 [CX4945] (partner dose 2 µM) | 63.9 | 66.1 | 90.9 | 90.5 | 43.9 | 57.7 | 60.3 | 81.9 | 98 | 97.6 | 95.2 | 76.7 | 68.2 | 83.9 | 101 | 71.7 | 109 | 83 | 75.3 | 84.3
C[C@@H](N)c1ccc(C(=O)Nc2ccnc3[nH]ccc23)cc1 + OCc1c[nH]c2ccccc12 [Indole-3-carbinol] (partner dose 4 µM) | 106 | 112 | 94.7 | 93.7 | 117 | 73.1 | 55.2 | 86.5 | 59.6 | 50.1 | 123 | 98.2 | 110 | 90.3 | 74.6 | 78.2 | 112 | 43.7 | 47.1 | 103
C[C@@H](N)c1ccc(C(=O)Nc2ccnc3[nH]ccc23)cc1 + CNC(=O)c1cc(Oc2ccc(NC(=O)Nc3ccc(Cl)c(C(F)(F)F)c3)cc2)ccn1 [sorafenib] (partner dose 2 µM) | 74.3 | 82.4 | 85.8 | 111 | 111 | 68.5 | 56.5 | 56.1 | 58.6 | 42.1 | 72.5 | 87.6 | 82.3 | 48.9 | 55.8 | 123 | 78.1 | 70.4 | 55.3 | 76.5
C[C@@H](N)c1ccc(C(=O)Nc2ccnc3[nH]ccc23)cc1 + Cn1c(=O)n(-c2ccc(C(C)(C)C#N)cc2)c2c3cc(-c4cnc5ccccc5c4)ccc3ncc21 [NVP-BEZ235] (partner dose 0.02 µM) | 48.8 | 67.7 | 64.7 | 81.1 | 47.1 | 44.7 | 36.4 | 48.6 | 47.9 | 52.2 | 43.5 | 74.4 | 54.1 | 44.7 | 83.2 | 60.9 | 63.9 | 54.5 | 55.3 | 62.7
C[C@@H](N)c1ccc(C(=O)Nc2ccnc3[nH]ccc23)cc1 + C[C@]1(O)C[C@@H](c2nc(-c3ccc4ccc(-c5ccccc5)nc4c3)c3c(N)nccn32)C1 [OSI906] (partner dose 2 µM) | 75.4 | 64.7 | 71.2 | 67.3 | 68.5 | 51.2 | 41.7 | 64.7 | 45.4 | 25.8 | 54.1 | 60.6 | 83.6 | 52.9 | 21.1 | 59.9 | 91.6 | 38.8 | 35.8 | 64
Cn1sc(=O)n(Cc2ccccc2)c1=O + CN1CCN(c2ccc3nc(-c4c(N)c5c(F)cccc5[nH]c4=O)[nH]c3c2)CC1 [Dovitinib] (partner dose 0.5 µM) | 64 | 65.3 | 79.4 | 38.4 | 107 | 76.8 | 42.1 | 47.8 | 101 | 88.1 | 35.9 | 62 | 84.7 | 56.7 | 85.6 | 66.3 | 53.1 | 88.3 | 64.3 | 63.2
C[C@@H](N)c1ccc(C(=O)Nc2ccnc3[nH]ccc23)cc1 + COCC[n+]1c2c(n(Cc3cnccn3)c1C)C(=O)c1ccccc1C2=O [YM155] (partner dose 0.002 µM) | 102 | 54.4 | 46.4 | 25.1 | 106 | 63.2 | 16.3 | 26.2 | 29.2 | 43.7 | 48.4 | 20.5 | 46.2 | 30.1 | 28.2 | 56 | 88.6 | 34.2 | 69.9 | 56.9
C[C@@H](N)c1ccc(C(=O)Nc2ccnc3[nH]ccc23)cc1 + Cc1nc(Nc2ncc(C(=O)Nc3c(C)cccc3Cl)s2)cc(N2CCN(CCO)CC2)n1 [dasatanib] (partner dose 0.02 µM) | 89 | 80.8 | 80.5 | 116 | 22.9 | 65.9 | 43.2 | 65.9 | 44 | 40.7 | 67.9 | 83.5 | 106 | 62 | 58.4 | 89.1 | 91.2 | 31.1 | 33.7 | 91.3
C[C@@H](N)c1ccc(C(=O)Nc2ccnc3[nH]ccc23)cc1 + Cn1cncc1[C@@](N)(c1ccc(Cl)cc1)c1ccc2c(c1)c(-c1cccc(Cl)c1)cc(=O)n2C [tipifarnib] (partner dose 0.05 µM) | 75 | 100 | 70.8 | 88.1 | 74.8 | 83.1 | 83.8 | 82.3 | 63.3 | 68.8 | 70.4 | 75.7 | 81.3 | 66.4 | 77.6 | 70.6 | 68.6 | 55.4 | 60.8 | 79.8
Cn1sc(=O)n(Cc2ccccc2)c1=O + CC(=O)O[C@@]12CO[C@@H]1C[C@H](O)[C@@]1(C)C(=O)[C@H](O)C3=C(C)[C@@H](OC(=O)[C@H](O)[C@@H](NC(=O)OC(C)(C)C)c4ccccc4)C[C@@](O)([C@@H](OC(=O)c4ccccc4)[C@H]21)C3(C)C [Docetaxel] (partner dose 0.0005 µM) | 20 | 47.1 | 46.2 | 54.1 | 62.3 | 47.7 | 47.4 | 30.2 | 23.2 | 67.7 | 18.1 | 29 | 51.2 | 37.9 | 75.7 | 59.3 | 58.4 | 34.1 | 45.7 | 42.9

From the supplement of paper PMC4604168 (melanoma cell lines)
